From patent US20130203661A1 (AEGERION PHARMACEUTICALS, published 2013) come the findings set out here.

The target of assay [1] is T1, chimeric Leptin (Hu)-EPO (Mu) receptor presented by the 32D OBECA cell line (human; murine, UniProt P48357 22-839; P14753 250-507).
T1 construct: Chimera of human leptin receptor and murine EPO receptor on 32D OBECA / 32D-Keptin cells; 273(29): 18365-18373; also called chimeric Hu-Leptin/Mu-EPO receptor
T1 sequence (looked up): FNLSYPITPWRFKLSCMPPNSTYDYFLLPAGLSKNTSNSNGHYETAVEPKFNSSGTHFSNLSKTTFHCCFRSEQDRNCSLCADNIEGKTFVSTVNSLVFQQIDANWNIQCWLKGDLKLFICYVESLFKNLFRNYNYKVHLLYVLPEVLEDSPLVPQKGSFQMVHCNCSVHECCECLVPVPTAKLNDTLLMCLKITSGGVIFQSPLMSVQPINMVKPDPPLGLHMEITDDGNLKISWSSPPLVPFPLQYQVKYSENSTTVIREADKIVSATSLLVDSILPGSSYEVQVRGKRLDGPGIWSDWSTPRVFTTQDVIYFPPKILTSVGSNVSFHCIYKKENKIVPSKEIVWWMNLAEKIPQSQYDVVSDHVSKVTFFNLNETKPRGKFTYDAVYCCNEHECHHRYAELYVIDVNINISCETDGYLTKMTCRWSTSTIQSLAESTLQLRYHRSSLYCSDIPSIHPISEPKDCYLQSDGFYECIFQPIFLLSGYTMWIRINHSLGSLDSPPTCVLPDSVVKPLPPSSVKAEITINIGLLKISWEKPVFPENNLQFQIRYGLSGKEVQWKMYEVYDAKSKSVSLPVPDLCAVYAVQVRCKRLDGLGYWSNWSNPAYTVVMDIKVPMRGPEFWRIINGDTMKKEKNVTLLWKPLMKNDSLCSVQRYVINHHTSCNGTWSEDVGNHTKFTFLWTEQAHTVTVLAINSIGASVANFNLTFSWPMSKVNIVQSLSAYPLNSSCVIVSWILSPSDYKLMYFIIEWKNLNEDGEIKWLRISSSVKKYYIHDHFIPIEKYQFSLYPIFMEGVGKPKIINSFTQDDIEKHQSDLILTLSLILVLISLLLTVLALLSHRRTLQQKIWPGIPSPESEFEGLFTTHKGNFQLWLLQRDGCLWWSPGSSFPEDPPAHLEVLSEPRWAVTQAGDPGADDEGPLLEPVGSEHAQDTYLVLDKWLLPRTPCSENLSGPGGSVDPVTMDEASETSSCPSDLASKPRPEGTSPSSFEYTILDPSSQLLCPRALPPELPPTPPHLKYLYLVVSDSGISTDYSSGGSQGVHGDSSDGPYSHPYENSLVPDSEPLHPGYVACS
Nature of the assay: Obeca cell binding: displacement of 125I-murine leptin from 32D OBECA cell membranes.

The target in assay [2] is T1, chimeric Leptin (Hu)-EPO (Mu) receptor …. The assay can be described thus: cell-based or functional assay.

B1: Mature Human Leptin form 1 with N-terminal methionine (also known as Metreleptin, or A100) (ligand)
chain: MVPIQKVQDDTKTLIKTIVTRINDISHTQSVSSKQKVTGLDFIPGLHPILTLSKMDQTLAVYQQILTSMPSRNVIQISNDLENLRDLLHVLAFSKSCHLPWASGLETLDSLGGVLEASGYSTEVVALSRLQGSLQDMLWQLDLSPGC
notes: Mature human leptin with an added N-terminal methionine; also called Compound 37; Cmpd 37
B1 had an IC50 in assay [1] of 0.2 to 0.8 nM. For the same molecule, the “EC50 (Obeca Stat 5 functional assay)” value in assay [2] was determined as 0.02 nM.
